# In the BET-seq Pho4 binding data (Le et al. 2018):
# This is one part of the list. Values were computed here from the reads of four pooled replicates and scatter widely.
# Target: T1, Pho4 (S. cerevisiae) (UniProt P07270)
# T1 sequence: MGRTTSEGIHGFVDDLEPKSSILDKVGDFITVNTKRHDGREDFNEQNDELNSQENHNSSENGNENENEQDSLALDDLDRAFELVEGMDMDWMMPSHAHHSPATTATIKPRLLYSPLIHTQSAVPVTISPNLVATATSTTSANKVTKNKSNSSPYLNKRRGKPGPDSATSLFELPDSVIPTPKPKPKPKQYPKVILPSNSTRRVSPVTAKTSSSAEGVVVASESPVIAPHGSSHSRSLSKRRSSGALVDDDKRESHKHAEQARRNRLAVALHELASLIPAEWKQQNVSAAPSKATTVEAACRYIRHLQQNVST
# Experiment: relative binding free energy (BET-seq); higher = weaker binding
# Details: reference: library average
row,Sequence,relative binding free energy [kcal/mol]
1,TTGGACACGTGTATTA,0.12
2,TATAACACGTGGGCTG,-0.24
3,AAATTCACGTGAGTAG,0.4
4,AGGGACACGTGTCATG,-0.01
5,AATGTCACGTGACTGG,0.25
6,ATTGGCACGTGTAGGT,-0.08
7,TGGGTCACGTGGGGAT,0.04
8,GAAGGCACGTGTAGAA,0.1
9,ATGGGCACGTGTGTAC,-0.06
10,GGGGGCACGTGATTGC,0.04
11,ATTCTCACGTGGGTTG,0.12
12,AGTGTCACGTGGGACG,0.07
13,GTTGGCACGTGAATAA,0.06
14,AGGACCACGTGATGTG,-0.03
15,TGTGGCACGTGTTCAT,-0.03
16,GAAGGCACGTGCGTTG,-0.1
17,GAGGTCACGTGGTGCT,0.17
18,TTTCACACGTGGGCGG,-0.14
19,TGGGGCACGTGTGGGT,0.03
20,AGACGCACGTGTTTGG,-0.15
21,AGGTCCACGTGAGTTG,0.36
22,GTGCGCACGTGTGTAG,0.01
23,ATTTGCACGTGTATAG,-0.07
24,ATGTTCACGTGAAGTG,0.32
25,TACAGCACGTGGCAGG,0

row,Sequence,relative binding free energy [kcal/mol]
1,ATCAGCACGTGGTAGG,-0.32
2,TGGGTCACGTGACAGT,0.28
3,AGGGTCACGTGCAGAT,0.04
4,TTAGGCACGTGTACGT,-0.16
5,TGGGTCACGTGTTATC,0.3
6,GTTTGCACGTGGCGCA,-0.06
7,AGATGCACGTGTCAGG,0.02
8,CCTGGCACGTGGTGCG,-0.12
9,ATGTTCACGTGATTTG,0.28
10,TGATTCACGTGCATTG,0.27
11,TTATTCACGTGAAGGC,0.39
12,CGCGCCACGTGGGGGT,-0.35
13,TGGAGCACGTGCTTGA,-0.03
14,TGGAGCACGTGGTGCT,-0.1
15,AAAGTCACGTGGCGGT,0.14
16,AGGAGCACGTGTTATT,-0.09
17,GCATTCACGTGGGCGG,0.2
18,TTATCCACGTGAAGGG,0.36
19,GGCTTCACGTGGTGCG,0.18
20,CGGCGCACGTGAGGAG,0.22
21,GGTGCCACGTGGGGCA,-0.03
22,AGGGTCACGTGGGTCG,-0.03
23,TGAGACACGTGCGTAG,-0.03
24,GTGAACACGTGCGGTG,-0.04
25,CAAAACACGTGGTGGT,-0.02

row,Sequence,relative binding free energy [kcal/mol]
1,TATTACACGTGGTGCT,0.04
2,ATTTACACGTGGCGAT,0.28
3,GTTAGCACGTGTGATA,0.01
4,TTTAGCACGTGCGATT,-0.11
5,TAACGCACGTGAGTTG,0.14
6,TTTCGCACGTGTGCGA,0.03
7,CTGTTCACGTGAGTGT,0.41
8,TGGGTCACGTGGTTCA,0.19
9,CGGGCCACGTGGGGTG,-0.35
10,ACTGGCACGTGGGGTG,-0.34
11,AGTTTCACGTGTTATG,0.28
12,TGTAACACGTGGTACG,-0.07
13,TATTGCACGTGTGTAC,-0.05
14,ATATACACGTGAAGGG,0.19
15,GTGCTCACGTGAAGGT,0.27
16,TTGTCCACGTGTAGGG,-0.03
17,GCAGTCACGTGTAGTT,0.13
18,GTTGTCACGTGTTGCC,0.11
19,GTAGTCACGTGGATAA,0.19
20,AGTTGCACGTGGTGCG,-0.1
21,TTTGGCACGTGGGGGG,-0.16
22,TAATTCACGTGAATTT,0.36
23,GGGACCACGTGCGGGT,-0.27
24,ATTGACACGTGATGGT,0.14
25,TTGCTCACGTGTGATG,0.27

row,Sequence,relative binding free energy [kcal/mol]
1,GGTAACACGTGGGGAA,-0.1
2,AACTTCACGTGGGTTT,0.21
3,ATTCGCACGTGGTTGA,-0.03
4,TAGATCACGTGTAGGC,0.22
5,GATAGCACGTGAGGCG,0.19
6,GGTTTCACGTGGTGTG,0.33
7,GGTTACACGTGCTTTA,0.24
8,CAGTGCACGTGGTTGA,0.01
9,TGTGGCACGTGGCTTT,-0.08
10,TGTTTCACGTGTATTG,0.3
11,GTATACACGTGTCTTG,-0.03
12,CGAAGCACGTGGGGGC,-0.18
13,TGGATCACGTGTATAG,0
14,AATCTCACGTGTTATT,0.14
15,AGCATCACGTGTTTAA,0.26
16,CAGGTCACGTGTTTTG,0.15
17,GATCTCACGTGTTGGG,0.25
18,GTTATCACGTGTTAGG,0.22
19,CGTTTCACGTGGTAAT,0.21
20,AGCATCACGTGATGTG,0.18
21,TAAATCACGTGGAAAG,0.47
22,GGGTACACGTGGGTGA,-0.02
23,TATGGCACGTGGAATT,0.05
24,GAGGGCACGTGGAGAT,-0.09
25,GGTACCACGTGGGTTG,-0.08

row,Sequence,relative binding free energy [kcal/mol]
1,GATTACACGTGAGTTT,0.34
2,TAACTCACGTGGTTGG,0.11
3,GAGTTCACGTGTGGTT,0.42
4,TGAGACACGTGGGGGA,0
5,GTTTACACGTGAGCTA,0.45
6,CAGAGCACGTGTATGG,-0.08
7,TTTAACACGTGAGAAT,0.24
8,ATTATCACGTGAATAG,0.38
9,GTTCTCACGTGTGGTT,0.32
10,CTCGGCACGTGGCGGG,-0.17
11,CTTCGCACGTGTGGTT,-0.03
12,GTGGGCACGTGTTGGG,-0.01
13,TCAGGCACGTGTTAGT,-0.15
14,TTGTGCACGTGCGGTT,-0.12
15,CGGAGCACGTGTATTG,-0.08
16,TGCGGCACGTGTTATG,-0.06
17,CACTTCACGTGGGTGT,0.09
18,TTTACCACGTGTTTAG,-0.09
19,GGATGCACGTGGCTGT,-0.15
20,ATTGTCACGTGGAGGC,0.18
21,CGTAACACGTGTAGTT,0.08
22,TATATCACGTGTTTCA,0.03
23,GGTGGCACGTGCATCG,-0.16
24,TTTAACACGTGGGTGC,-0.1
25,AGGTTCACGTGTGCGT,0.19

row,Sequence,relative binding free energy [kcal/mol]
1,GAAGGCACGTGGCAGG,-0.1
2,TCTTTCACGTGTTTGG,0.26
3,GTGGTCACGTGAGTAC,0.2
4,ATGTGCACGTGGTGGA,-0.11
5,TCAGTCACGTGGGACG,0.16
6,GGCTTCACGTGAATTG,0.45
7,CGTGGCACGTGAGTAT,0.04
8,GTCAGCACGTGTTTTG,0
9,AATTGCACGTGGAGGC,-0.01
10,GTTATCACGTGAAGGC,0.34
11,GCGTGCACGTGGGTTT,-0.06
12,TAATTCACGTGTCTGT,0.31
13,TCGGTCACGTGCGTCT,0.28
14,AACTGCACGTGGATGT,0.07
15,TGTAGCACGTGGGAAA,-0.08
16,TTTGTCACGTGGCGAA,0.15
17,GCAGGCACGTGTGTGT,-0.14
18,AAATGCACGTGTGGGA,-0.07
19,TAGGTCACGTGATAGT,0.23
20,GACTTCACGTGGGTGG,0.27
21,GTATTCACGTGTACAT,0.38
